Test results taken from publication PMC4336329 (PLoS ONE, 2015).
Out of some 310,000 compounds screened, about 2,200 (0.71%) showed an effect of 50% or more. The effect is printed as a negative number. The list shows a part of the results.

Biological target: human ether-à-go-go-related gene (hERG) potassium channel (human, UniProt Q12809)
Experiment: primary screen, population patch clamp on CHO cells stably expressing hERG

Sequence of human ether-à-go-go-related gene (hERG) potassium channel (Q12809 whole entry, looked up): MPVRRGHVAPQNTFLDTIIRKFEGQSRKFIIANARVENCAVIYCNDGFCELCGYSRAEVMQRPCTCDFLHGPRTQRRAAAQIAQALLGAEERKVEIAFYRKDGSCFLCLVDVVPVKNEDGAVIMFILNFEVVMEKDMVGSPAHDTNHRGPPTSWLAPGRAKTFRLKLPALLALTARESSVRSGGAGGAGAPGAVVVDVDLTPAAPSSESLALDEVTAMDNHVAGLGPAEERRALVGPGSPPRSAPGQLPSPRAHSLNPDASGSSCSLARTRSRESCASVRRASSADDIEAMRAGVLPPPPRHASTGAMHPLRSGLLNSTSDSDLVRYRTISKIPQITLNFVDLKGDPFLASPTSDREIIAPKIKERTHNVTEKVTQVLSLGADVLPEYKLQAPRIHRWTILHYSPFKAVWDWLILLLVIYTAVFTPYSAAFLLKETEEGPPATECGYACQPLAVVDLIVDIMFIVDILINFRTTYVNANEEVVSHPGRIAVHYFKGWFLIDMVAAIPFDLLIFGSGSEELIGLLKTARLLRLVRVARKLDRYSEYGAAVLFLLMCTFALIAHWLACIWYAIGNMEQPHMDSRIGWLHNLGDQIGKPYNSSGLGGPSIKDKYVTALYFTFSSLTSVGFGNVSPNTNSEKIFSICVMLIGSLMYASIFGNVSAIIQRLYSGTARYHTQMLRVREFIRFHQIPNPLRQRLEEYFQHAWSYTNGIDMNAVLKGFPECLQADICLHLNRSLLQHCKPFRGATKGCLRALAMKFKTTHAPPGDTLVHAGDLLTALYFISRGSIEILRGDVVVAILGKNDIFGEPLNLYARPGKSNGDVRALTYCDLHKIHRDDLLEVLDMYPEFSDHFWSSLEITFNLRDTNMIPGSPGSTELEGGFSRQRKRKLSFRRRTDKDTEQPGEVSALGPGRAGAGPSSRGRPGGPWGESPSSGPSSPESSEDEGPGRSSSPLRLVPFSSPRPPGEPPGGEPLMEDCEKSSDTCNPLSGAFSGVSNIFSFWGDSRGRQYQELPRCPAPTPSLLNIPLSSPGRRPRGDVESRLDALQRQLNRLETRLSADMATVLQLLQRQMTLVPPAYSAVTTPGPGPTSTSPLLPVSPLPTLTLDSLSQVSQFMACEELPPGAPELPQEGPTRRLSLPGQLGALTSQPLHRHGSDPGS

First: CC1=NNC(=O)c2ccccc2O1
Second: COc1ccccc1-c1nnc(NC(C)=O)s1
The “hERG current change (%, negative = inhibition) at 1uM” value of the first is higher: 22.7% for the first, 4.27% for the second.

Going from `Cc1nc2ccc(C(=O)N/N=C/c3cc([N+](=O)[O-])ccc3O)cc2[nH]1` to `C/C(=N\NC(=O)c1ccc([N+](=O)[O-])cc1)c1cccc([N+](=O)[O-])c1`, the “hERG current change (%, negative = inhibition) at 1uM” value falls from 10.1% to 7.96%.

Compared with `O=C(CSc1nc2ccccc2c(=O)[nH]1)N1CCCCC1`, `CC1CCN(S(=O)(=O)N2CCCC(C(=O)NCc3ccccc3Cl)C2)CC1` (stereo not shown) is lower in “hERG current change (%, negative = inhibition) at 1uM” value: 10.4% for the first, 4.92% for the second.

Compared with `CC(C)C(NS(=O)(=O)c1ccccc1F)C(=O)N1CCc2ccccc2C1` (stereo not shown), `CSc1ccccc1NS(=O)(=O)c1ccccc1` is lower in “hERG current change (%, negative = inhibition) at 1uM” value: 18.9% for the first, 4.91% for the second.

Compared with `O=C(NCC(c1cccs1)N1CCOCC1)c1cc(Cl)ccc1[N+](=O)[O-]` (stereo not shown), `O=C(NCCN1CCOCC1)C1CC(=O)N(c2ccc(F)c(Cl)c2)C1` (stereo not shown) is higher in “hERG current change (%, negative = inhibition) at 1uM” value: 0.8% for the first, 0.843% for the second.

First: O=C(NCc1nc2ccccc2[nH]1)C1=C[C@@H](c2ccc(C(F)(F)F)cc2)C[C@@H](OCc2ccc(CO)cc2)O1
Second: O=C(Nc1cc(C(F)(F)F)ccc1-n1cnc2ccccc21)c1ccccc1
The “hERG current change (%, negative = inhibition) at 1uM” value of the first is higher: 16.6% for the first, -4.23% for the second.

First: O=C(NNC(=O)c1cccc(-n2cccc2)c1)c1ccc(F)cc1
Second: O=C(Nc1ccncc1NC(=O)c1cccc([N+](=O)[O-])c1)c1cccc([N+](=O)[O-])c1
The “hERG current change (%, negative = inhibition) at 1uM” value of the first is higher: 14.8% for the first, 8.76% for the second.

Compared with `COc1ccc(Cl)cc1C(=O)Nn1c(-c2cccs2)nc2ccccc2c1=O`, `O=C(Nc1ccccc1SCC1CSc2nc3ccccc3c(=O)n21)c1ccccc1Cl` (stereo not shown) is lower in “hERG current change (%, negative = inhibition) at 1uM” value: -1.42% for the first, -53.2% for the second.

Compared with `Cc1nn(-c2ccccc2)c2c1P(=O)(O)/C(=C1\N(C)c3ccccc3C1(C)C)C=N2`, `CC1(C)CN=C(N(C(=O)Nc2ccccc2)c2ccccc2F)S1` is higher in “hERG current change (%, negative = inhibition) at 1uM” value: 7.34% for the first, 11.9% for the second.

First: N#CC1=C(N)SC(N)=C(C#N)C1Cc1ccccc1
Second: COc1ccc(CN2C(=NC(=O)CCc3ccccc3)SC3CS(=O)(=O)CC32)cc1 (stereo not shown)
The “hERG current change (%, negative = inhibition) at 1uM” value of the first is lower: 9.79% for the first, 14.7% for the second.

First: COc1ccccc1N(CC(=O)NCCSc1ccc(Cl)cc1)S(C)(=O)=O
Second: CC(O)C(NS(=O)(=O)c1ccc(Cl)cc1)C(=O)OCC(=O)c1c[nH]c2ccccc12 (stereo not shown)
The “hERG current change (%, negative = inhibition) at 1uM” value of the first is lower: 4.09% for the first, 5.23% for the second.

Going from `Cc1cc(C)c2c3c(sc2n1)C1(CCSCC1)C(C#N)=C(N)O3` to `COCc1cc(C)nc2sc(C(=O)Nc3ccc(C(=O)OC)cc3)c(N)c12`, the “hERG current change (%, negative = inhibition) at 1uM” value rises from 11.2% to 12.6%.

Going from `O=C1CCCN1c1cc(Cl)ccc1Cl` to `CC1CCCCC1NC(=O)COn1nnc2ccc(Cl)cc21` (stereo not shown), the “hERG current change (%, negative = inhibition) at 1uM” value falls from 9.09% to -2.69%.

Going from `CCC(C)NC(=O)C1CCN(c2nc(C)cc(C)n2)CC1` (stereo not shown) to `CCC(Sc1nncn1C)C(=O)Nc1cc(C)on1` (stereo not shown), the “hERG current change (%, negative = inhibition) at 1uM” value rises from 6.17% to 24.4%.

Compared with `O=S(=O)(Nc1cccc(-c2ccc3nncn3n2)c1)c1cccs1`, `Cc1ccc(NC(=O)Nc2nnc(-c3ccccc3)o2)cc1` is lower in “hERG current change (%, negative = inhibition) at 1uM” value: 6.8% for the first, 5.86% for the second.

Going from `Cc1cc(OCC(=O)NCCCN2CCOCC2)c2c(C)cc(=O)oc2c1` to `Cc1cccc(/C=C2\Sc3ccc(C(=O)N4CCOCC4)cc3N(C)C2=O)c1`, the “hERG current change (%, negative = inhibition) at 1uM” value rises from 6.42% to 7.7%.

Compared with `CCOc1cc2[nH]c(=O)n(CCCCCC(=O)NC3CCCC3)c(=O)c2cc1OCC`, `CCOc1ccc(N2CC(C(=O)Nc3ccc(OC)c(S(=O)(=O)N4CCCCC4)c3)CC2=O)cc1` (stereo not shown) is higher in “hERG current change (%, negative = inhibition) at 1uM” value: 7.43% for the first, 8.7% for the second.

Going from `CCOc1ccc2[nH]c(=O)c(CN(CCO)C(=O)c3ccc(F)cc3)cc2c1` to `CCN(CC)C(=O)C(=O)c1cc(C)n(-c2ccc(F)cc2)c1C`, the “hERG current change (%, negative = inhibition) at 1uM” value rises from 9.74% to 17.5%.

Compared with `COCCOC(=O)C1=C(C)Nc2ncnn2C1c1ccccc1` (stereo not shown), `NNc1nccc(Nc2ccccc2C(=O)O)n1` is lower in “hERG current change (%, negative = inhibition) at 1uM” value: 11.3% for the first, 6.44% for the second.

First: COc1ccc(NC(=O)c2cccc(N3C(=O)C4C5C=CC(C5)C4C3=O)c2)cc1 (stereo not shown)
Second: O=C(Nc1ccc(S(=O)(=O)NCc2cccnc2)cc1)c1ccccc1Cl
The “hERG current change (%, negative = inhibition) at 1uM” value of the first is higher: 15.2% for the first, 8.65% for the second.

First: COc1ccc(OC)c(CN2CCN(C(=O)c3cccs3)CC2)c1.O=C(O)C(=O)O
Second: COc1ccc(NC(=O)N2CCC(O)(c3cccnc3)CC2)c(OC)c1
The “hERG current change (%, negative = inhibition) at 1uM” value of the first is lower: 1.38% for the first, 15.6% for the second.

First: CCCCN(CC)S(=O)(=O)c1ccc2c(c1)CCCN2C(C)=O
Second: CCCn1c(SCC(=O)Nc2cccc(NC(C)=O)c2)nnc1C(C)C
The “hERG current change (%, negative = inhibition) at 1uM” value of the first is lower: -6.1% for the first, 9.33% for the second.

Compared with `CN(C(=O)c1ccncc1)c1nnc(-c2cnccn2)s1`, `O=C(c1cccc(Cl)c1)N1CCN(c2ncccn2)CC1` is lower in “hERG current change (%, negative = inhibition) at 1uM” value: 13.8% for the first, 10.9% for the second.

Compared with `Cc1ccc(NC(=S)N2CC(C)OC(C)C2)cc1C` (stereo not shown), `CC1CN(C(=O)COC(=O)COc2ccc(C#N)cc2)CC(C)O1` (stereo not shown) is higher in “hERG current change (%, negative = inhibition) at 1uM” value: 9.55% for the first, 11.6% for the second.

First: CC(C)c1ccc(NC(=O)CCNC(=O)N2C[C@H]3C[C@@H](C2)c2cccc(=O)n2C3)cc1
Second: Cc1ccc(-c2ccc(=O)n(CC(=O)NCCN3C(C)CCCC3C)n2)cc1 (stereo not shown)
The “hERG current change (%, negative = inhibition) at 1uM” value of the first is higher: 9.18% for the first, 7.38% for the second.

First: O=C(NC1CCCCC1)C1CCN(S(=O)(=O)c2cccs2)CC1
Second: COC(=O)c1c(NC(=O)CN2CCN(S(=O)(=O)c3ccccc3)CC2)sc2c1CCC(C)C2 (stereo not shown)
The “hERG current change (%, negative = inhibition) at 1uM” value of the first is higher: 9.65% for the first, 4.65% for the second.

First: Cn1ccs/c1=N\C(=O)Nc1cccc(C(F)(F)F)c1
Second: Cc1cccc(CNS(=O)(=O)c2csc(C(N)=O)c2)c1
The “hERG current change (%, negative = inhibition) at 1uM” value of the first is lower: 9.61% for the first, 24.9% for the second.

Compared with `O=[N+]([O-])c1ccc2nc(-c3cccnc3)[nH]c2c1`, `Cn1c(C(=O)c2ccccc2[N+](=O)[O-])nc2ccccc21` is lower in “hERG current change (%, negative = inhibition) at 1uM” value: 5.81% for the first, -9.27% for the second.

Compared with `CC(=O)NC(=O)Nc1sc(=S)n(C)c1C`, `CC(C)(C)NC(=O)NC(=O)COC(=O)Cn1cnc2ccccc2c1=O` is lower in “hERG current change (%, negative = inhibition) at 1uM” value: 14.4% for the first, 7.57% for the second.

First: CC(=O)OCC1=C(C(=O)O)N2C(=O)C(NC(=O)c3ccc(F)cc3)C2SC1 (stereo not shown)
Second: COc1ccc(N2C(=O)C3CCCN3C2c2ccc(F)cc2)cc1Cl (stereo not shown)
The “hERG current change (%, negative = inhibition) at 1uM” value of the first is higher: 8.38% for the first, 8.28% for the second.

Going from `COc1ccc2cc(C(c3nnnn3C3CCCC3)N3CCc4ccccc4C3)c(=O)[nH]c2c1` (stereo not shown) to `O=c1c2c(n3cnnc3n1C1CCCCC1)-c1ccccc1CC21CCCCC1`, the “hERG current change (%, negative = inhibition) at 1uM” value rises from -12.1% to 10.3%.

First: Cc1cccc(NC(=O)C(=O)NCc2ccc3c(c2)OCO3)c1C
Second: Cn1cc([N+](=O)[O-])c(C(=O)Nc2ccc3c(c2)OCCO3)n1
The “hERG current change (%, negative = inhibition) at 1uM” value of the first is lower: -2.14% for the first, 12.2% for the second.

First: Cc1cc(Nc2ccc(Br)c(C)c2)n2nc(C)nc2n1
Second: Cc1nc2ncnn2c(Nc2ccc3c(c2)OCCO3)c1C
The “hERG current change (%, negative = inhibition) at 1uM” value of the first is lower: -2.83% for the first, 8.63% for the second.

First: CCOc1nc(-c2ccccc2)ccc1-c1noc(-c2ccncc2)n1
Second: Cc1c(NC(=O)c2cccc(-c3cc4ccccc4oc3=O)c2)cccc1-c1nc2ncccc2o1
The “hERG current change (%, negative = inhibition) at 1uM” value of the first is higher: 13% for the first, 12.7% for the second.

Compared with `Cc1cc(C(=O)OCC(=O)Nc2ccccc2[N+](=O)[O-])c2ccccc2n1`, `O=C(CN(Cc1ccco1)C(=O)c1ccccc1F)Nc1ccccc1C(F)(F)F` is lower in “hERG current change (%, negative = inhibition) at 1uM” value: 10.2% for the first, -0.639% for the second.

Going from `Cc1cccc(OCC(O)Cn2ccnc2C)c1` (stereo not shown) to `Cc1cccc(Cc2cnc(N3C(=N)SC(C)C3=O)s2)c1` (stereo not shown), the “hERG current change (%, negative = inhibition) at 1uM” value falls from 9.45% to 0.864%.

First: CCN(CC)c1nc(OC)nc(-n2nnc(C(C)=O)c2C)n1
Second: COc1ccc(NS(=O)(=O)c2c(C)n(C)c(=O)n(C)c2=O)cc1OC
The “hERG current change (%, negative = inhibition) at 1uM” value of the first is higher: 4.43% for the first, 3% for the second.

Compared with `CC[n+]1c(/C=C/c2ccc(N(C)C)cc2)ccc2ccccc21.[I-]`, `CC(C)NCCCCOc1ccccc1-c1ccccc1.O=C(O)C(=O)O` is higher in “hERG current change (%, negative = inhibition) at 1uM” value: -27% for the first, -4.25% for the second.

Compared with `CC(NC(=O)CCc1nnc(C2(c3ccc(Cl)cc3)CCC2)o1)C1CC1` (stereo not shown), `CCCCCC(=O)Nc1nc(C)c(-c2csc(Nc3ccc(Cl)cc3)n2)s1` is higher in “hERG current change (%, negative = inhibition) at 1uM” value: -0.143% for the first, 13.5% for the second.

Compared with `O=C(c1ccccc1)N1CCN(S(=O)(=O)c2ccc(Cl)c(C(F)(F)F)c2)CC1`, `CCCOc1cccc(C(=O)N(Cc2ccccc2)C2CCS(=O)(=O)C2)c1` (stereo not shown) is lower in “hERG current change (%, negative = inhibition) at 1uM” value: 7.68% for the first, 7.37% for the second.

Compared with `O=C1C=CC(=O)N1c1ccc(O)cc1`, `CC(NS(=O)(=O)c1ccc(Cl)cc1)C(=O)NCc1ccco1` (stereo not shown) is lower in “hERG current change (%, negative = inhibition) at 1uM” value: 7.51% for the first, -0.236% for the second.

First: CCOC(=O)c1csc(N/N=C2\CCc3ccccc32)n1
Second: CCC1Sc2ccc(S(=O)(=O)CCC(=O)Nc3ccccc3Cl)cc2NC1=O (stereo not shown)
The “hERG current change (%, negative = inhibition) at 1uM” value of the first is lower: 12.3% for the first, 21.3% for the second.

First: COc1ccc(C(=O)Cc2ccc(OC)c(OC)c2)c(OC)c1
Second: CCC1CN(C(=O)N2CCC(C(=O)NCCc3ccccc3OC)CC2)c2ccccc2O1 (stereo not shown)
The “hERG current change (%, negative = inhibition) at 1uM” value of the first is higher: 12.8% for the first, 3.23% for the second.

First: O=C1N(c2nncs2)CCN1[N+](=O)[O-]
Second: COc1ccc(C2C3=C(CCCC3=O)N(CC(=O)O)C3=C2C(=O)CCC3)cc1Cl
The “hERG current change (%, negative = inhibition) at 1uM” value of the first is higher: 14.6% for the first, 14% for the second.
